Measurements from the supplement of paper PMC10369915.
This is one part of the list. No stated cut-off is given here; in the data, active = 3.2 or more and inactive = the rest. Only a few entries rise above the background.

What was measured:
Experiment in all cases: enrichment score (SH2-bound / input frequency) (ratio); bacterial display of known human phosphotyrosine sites (pTyr-Var adds point mutants) read by sequencing; higher = stronger binding; tyrosines were phosphorylated by kinases first
Settings in all cases: peptide library: pTyr-Var
SHP2 C-SH2 domain E139D = molecular target: SHP2 C-SH2 domain E139D
[1] = molecular target: SHP2 C-SH2 domain wild-type
SHP2 N-SH2 domain L43F = molecular target: SHP2 N-SH2 domain L43F
SHP2 N-SH2 domain T42A = molecular target: SHP2 N-SH2 domain T42A
SHP2 N-SH2 domain T52S = molecular target: SHP2 N-SH2 domain T52S
[2] = molecular target: SHP2 N-SH2 domain wild-type

Measured: enrichment score
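Further: displayed peptides selected on beads carrying the immobilized SH2 domain, with library peptides lacking any tyrosine serving as negative controls.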

B1: TTN_Y20328_R20331H (peptide)
chain: KINKMYSDHAM
inactive: SHP2 C-SH2 domain E139D 0.649 | [1] 0.639 | SHP2 N-SH2 domain L43F 0.451 | SHP2 N-SH2 domain T42A 0.816 | SHP2 N-SH2 domain T52S 0.566 | [2] 0.891

B2: TTN_Y20412 (peptide)
chain: IAKNPYDPPGR
inactive: SHP2 C-SH2 domain E139D 0.955 | [1] 0.823 | SHP2 N-SH2 domain L43F 0.573 | SHP2 N-SH2 domain T42A 0.618 | SHP2 N-SH2 domain T52S 0.754 | [2] 0.927

B3: TTN_Y2112 (peptide)
chain: PECEWYKNGVK
inactive: SHP2 C-SH2 domain E139D 1.31 | [1] 1.15 | SHP2 N-SH2 domain L43F 1.51 | SHP2 N-SH2 domain T42A 1.05 | SHP2 N-SH2 domain T52S 0.708 | [2] 1.33

B4: TTN_Y21998 (peptide)
chain: DLRGIYQKLVI
inactive: SHP2 C-SH2 domain E139D 1.44 | [1] 1.86 | SHP2 N-SH2 domain L43F 1.64 | SHP2 N-SH2 domain T42A 1.78 | SHP2 N-SH2 domain T52S 1.52 | [2] 1.2

B5: TTN_Y22256 (peptide)
chain: TDGIAYEFRVI
inactive: SHP2 C-SH2 domain E139D 0.797 | [1] 0.899 | SHP2 N-SH2 domain L43F 0.859 | SHP2 N-SH2 domain T42A 0.602 | SHP2 N-SH2 domain T52S 0.739 | [2] 0.893

B6: TTN_Y22579_P22584L (peptide)
chain: LAVNPYGPPDL
inactive: SHP2 C-SH2 domain E139D 0.786 | [1] 0.761 | SHP2 N-SH2 domain L43F 1.08 | SHP2 N-SH2 domain T42A 0.758 | SHP2 N-SH2 domain T52S 0.786 | [2] 1.33

B7: TTN_Y22641 (peptide)
chain: LTDLRYKVSGL
inactive: SHP2 C-SH2 domain E139D 0.661 | [1] 0.504 | SHP2 N-SH2 domain L43F 0.472 | SHP2 N-SH2 domain T42A 0.567 | SHP2 N-SH2 domain T52S 0.611 | [2] 0.635

B8: TTN_Y22641_L22646P (peptide)
chain: LTDLRYKVSGP
inactive: SHP2 C-SH2 domain E139D 0.403 | [1] 0.421 | SHP2 N-SH2 domain L43F 0.626 | SHP2 N-SH2 domain T42A 0.478 | SHP2 N-SH2 domain T52S 0.569 | [2] 0.401

B9: TTN_Y25826 (peptide)
chain: TACNPYKPPGP
inactive: SHP2 C-SH2 domain E139D 0.78 | [1] 0.807 | SHP2 N-SH2 domain L43F 0.728 | SHP2 N-SH2 domain T42A 0.533 | SHP2 N-SH2 domain T52S 0.878 | [2] 0.626

B10: TTN_Y25928 (peptide)
chain: ACDALYPPGPP
inactive: SHP2 C-SH2 domain E139D 0.701 | [1] 0.716 | SHP2 N-SH2 domain L43F 1.01 | SHP2 N-SH2 domain T42A 0.523 | SHP2 N-SH2 domain T52S 0.612 | [2] 0.772

B11: TTN_Y28166 (peptide)
chain: PGVNYYFRVSA
inactive: SHP2 C-SH2 domain E139D 1.12 | [1] 1.72 | SHP2 N-SH2 domain L43F 0.907 | SHP2 N-SH2 domain T42A 1.16 | SHP2 N-SH2 domain T52S 0.96 | [2] 1.1

B12: TTN_Y28166_YF (peptide)
chain: PGVNFYFRVSA
inactive: SHP2 C-SH2 domain E139D 1.07 | [1] 2 | SHP2 N-SH2 domain L43F 1.27 | SHP2 N-SH2 domain T42A 0.782 | SHP2 N-SH2 domain T52S 0.766 | [2] 1.9

B13: TTN_Y30829 (peptide)
chain: TEGNEYVFRVA
inactive: SHP2 C-SH2 domain E139D 0.64 | [1] 0.509 | SHP2 N-SH2 domain L43F 0.511 | SHP2 N-SH2 domain T42A 0.581 | SHP2 N-SH2 domain T52S 0.525 | [2] 0.788

B14: TTN_Y30829_E30825K (peptide)
chain: TKGNEYVFRVA
inactive: SHP2 C-SH2 domain E139D 0.601 | [1] 0.977 | SHP2 N-SH2 domain L43F 0.624 | SHP2 N-SH2 domain T42A 0.62 | SHP2 N-SH2 domain T52S 0.766 | [2] 0.675

B15: TTN_Y31721 (peptide)
chain: TENAGYYFRVS
inactive: SHP2 C-SH2 domain E139D 0.729 | [1] 0.794 | SHP2 N-SH2 domain L43F 0.391 | SHP2 N-SH2 domain T42A 0.477 | SHP2 N-SH2 domain T52S 0.518 | [2] 0.37

B16: TTN_Y31721_V31725I_YF (peptide)
chain: TENAGYFFRIS
inactive: SHP2 C-SH2 domain E139D 0.563 | [1] 0.641 | SHP2 N-SH2 domain L43F 0.656 | SHP2 N-SH2 domain T42A 0.527 | SHP2 N-SH2 domain T52S 0.537 | [2] 0.753

B17: TTN_Y31722 (peptide)
chain: ENAGYYFRVSA
inactive: SHP2 C-SH2 domain E139D 0.563 | [1] 0.633 | SHP2 N-SH2 domain L43F 0.672 | SHP2 N-SH2 domain T42A 0.577 | SHP2 N-SH2 domain T52S 0.574 | [2] 0.736

B18: TTN_Y31722_R31724Q (peptide)
chain: ENAGYYFQVSA
inactive: SHP2 C-SH2 domain E139D 0.887 | [1] 0.738 | SHP2 N-SH2 domain L43F 0.733 | SHP2 N-SH2 domain T42A 0.738 | SHP2 N-SH2 domain T52S 0.623 | [2] 0.883

B19: TTN_Y31722_V31725I (peptide)
chain: ENAGYYFRISA
inactive: SHP2 C-SH2 domain E139D 0.736 | [1] 0.76 | SHP2 N-SH2 domain L43F 0.945 | SHP2 N-SH2 domain T42A 0.417 | SHP2 N-SH2 domain T52S 0.492 | [2] 0.895

B20: TTN_Y32175_T32171N_YF (peptide)
chain: SNKELYEKFMI
inactive: SHP2 C-SH2 domain E139D 1.03 | [1] 0.9 | SHP2 N-SH2 domain L43F 0.965 | SHP2 N-SH2 domain T42A 0.839 | SHP2 N-SH2 domain T52S 0.865 | [2] 0.876

B21: TTN_Y33421 (peptide)
chain: TRTEAYAVSSF
inactive: SHP2 C-SH2 domain E139D 0.763 | [1] 0.629 | SHP2 N-SH2 domain L43F 0.713 | SHP2 N-SH2 domain T42A 0.532 | SHP2 N-SH2 domain T52S 0.488 | [2] 0.73

B22: TTN_Y33421_E33419D (peptide)
chain: TRTDAYAVSSF
inactive: SHP2 C-SH2 domain E139D 0.701 | [1] 0.893 | SHP2 N-SH2 domain L43F 0.818 | SHP2 N-SH2 domain T42A 0.655 | SHP2 N-SH2 domain T52S 0.714 | [2] 1.05

B23: TTR_Y125_I127M (peptide)
chain: SGPRRYTMAAL
inactive: SHP2 C-SH2 domain E139D 0.381 | [1] 0.43 | SHP2 N-SH2 domain L43F 0.341 | SHP2 N-SH2 domain T42A 0.304 | SHP2 N-SH2 domain T52S 0.404 | [2] 0.379

B24: TTR_Y125_I127V (peptide)
chain: SGPRRYTVAAL
inactive: SHP2 C-SH2 domain E139D 0.539 | [1] 0.631 | SHP2 N-SH2 domain L43F 0.605 | SHP2 N-SH2 domain T42A 0.451 | SHP2 N-SH2 domain T52S 0.452 | [2] 0.765

B25: TTR_Y125_R124H (peptide)
chain: SGPRHYTIAAL
inactive: SHP2 C-SH2 domain E139D 1.36 | [1] 1.45 | SHP2 N-SH2 domain L43F 1.51 | SHP2 N-SH2 domain T42A 1.55 | SHP2 N-SH2 domain T52S 1.61 | [2] 1.45

B26: TTR_Y125_T126N (peptide)
chain: SGPRRYNIAAL
inactive: SHP2 C-SH2 domain E139D 0.669 | [1] 0.379 | SHP2 N-SH2 domain L43F 0.506 | SHP2 N-SH2 domain T42A 0.6 | SHP2 N-SH2 domain T52S 0.465 | [2] 0.58

B27: TUBA1A_Y185_I188L (peptide)
chain: AVVEPYNSLLT
inactive: SHP2 C-SH2 domain E139D 0.99 | [1] 0.77 | SHP2 N-SH2 domain L43F 1.06 | SHP2 N-SH2 domain T42A 0.871 | SHP2 N-SH2 domain T52S 0.997 | [2] 0.78

B28: TUBA1A_Y262_P263T (peptide)
chain: TNLVPYTRIHF
active: SHP2 C-SH2 domain E139D 6.62 | [1] 7.84 | SHP2 N-SH2 domain L43F 13.5 | SHP2 N-SH2 domain T42A 26.8 | SHP2 N-SH2 domain T52S 14.7 | [2] 6.96

B29: TUBA1A_Y282_L286F (peptide)
chain: SAEKAYHEQFS
inactive: SHP2 C-SH2 domain E139D 0.637 | [1] 0.485 | SHP2 N-SH2 domain L43F 0.439 | SHP2 N-SH2 domain T42A 0.532 | SHP2 N-SH2 domain T52S 0.568 | [2] 0.599

B30: TUBA1A_Y399 (peptide)
chain: KFDLMYAKRAF
inactive: SHP2 C-SH2 domain E139D 0.471 | [1] 0.436 | SHP2 N-SH2 domain L43F 0.447 | SHP2 N-SH2 domain T42A 0.434 | SHP2 N-SH2 domain T52S 0.428 | [2] 0.513

B31: TUBA1A_Y399_R402H (peptide)
chain: KFDLMYAKHAF
inactive: SHP2 C-SH2 domain E139D 0.927 | [1] 0.821 | SHP2 N-SH2 domain L43F 1.02 | SHP2 N-SH2 domain T42A 0.934 | SHP2 N-SH2 domain T52S 1.05 | [2] 0.89

B32: TUBA3E_Y103 (peptide)
chain: DAASNYARGHY
inactive: SHP2 C-SH2 domain E139D 0.442 | [1] 0.432 | SHP2 N-SH2 domain L43F 0.416 | SHP2 N-SH2 domain T42A 0.49 | SHP2 N-SH2 domain T52S 0.408 | [2] 0.456

B33: TUBA3E_Y103_S101N (peptide)
chain: DAANNYARGHY
inactive: SHP2 C-SH2 domain E139D 0.542 | [1] 0.49 | SHP2 N-SH2 domain L43F 0.467 | SHP2 N-SH2 domain T42A 0.436 | SHP2 N-SH2 domain T52S 0.61 | [2] 0.569

B34: TUBA3E_Y103_S101N_YF (peptide)
chain: DAANNYARGHF
inactive: SHP2 C-SH2 domain E139D 0.602 | [1] 0.516 | SHP2 N-SH2 domain L43F 0.917 | SHP2 N-SH2 domain T42A 0.522 | SHP2 N-SH2 domain T52S 0.928 | [2] 0.678

B35: TUBA3E_Y161 (peptide)
chain: RLSVDYSKKSK
inactive: SHP2 C-SH2 domain E139D 1.02 | [1] 0.644 | SHP2 N-SH2 domain L43F 0.732 | SHP2 N-SH2 domain T42A 0.474 | SHP2 N-SH2 domain T52S 0.563 | [2] 0.366

B36: TUBA3E_Y399 (peptide)
chain: KFDLMYAKWAF
inactive: SHP2 C-SH2 domain E139D 2.51 | [1] 1.62 | SHP2 N-SH2 domain L43F 1.83 | SHP2 N-SH2 domain T42A 2.08 | SHP2 N-SH2 domain T52S 2.09 | [2] 2.75

B37: TUBA4A_Y161_Y161C (peptide)
chain: RLSVDCGKKSK
inactive: SHP2 C-SH2 domain E139D 1.25 | [1] 1.07 | SHP2 N-SH2 domain L43F 0.851 | SHP2 N-SH2 domain T42A 1.09 | SHP2 N-SH2 domain T52S 1.4 | [2] 2.44
